Read counts are not given, so values of variants with three or more changes are uncertain.

The text below walks through data of the RNAGym collection of RNA variant scans (doi:10.1093/nar/gkz1192).

To fix the notation:
B1: CPEB3 Ribozyme (parent)
chain: UAACAGGGGGCCACAGCAGAAGCGUUCACGUCGCAGCCCCUGUCAGAUUCUGGUGAAUCUGCGAAUUCUGCUGUAUAUCUC

Variants of B1 are the subject of this data set. As to the kind of experiment: self-cleavage, relative activity (ratio to wild type); higher = more cleavage; in vitro, sequencing. An outline of the steps:
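Relative activity compares each variant's cleaved/total read fraction with that of the unmutated ribozyme. To get these fractions, barcoded CPEB3 ribozyme libraries from rounds of error-prone PCR were transcribed with T7 RNA polymerase for 5 hours at 37°C and then given 15 min of DNase I treatment before EDTA was added. The RNAs were reverse transcribed with template switching and sequenced on Illumina, and DNA sequencing linked barcodes to variants. A minimum of 5 reads applied, and three batches were averaged.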
For the variant A15U U41A U60C A64U U72C U78C, the self-cleavage stood at 0.16.
The same measure for A15U U41C U69C A77G: 0.19; for G16A U49C U51A U60C: 0.13; for G16A U43A C62A U76A: 0.13.
On to G16A U25C A45G U72G U78C, for which the self-cleavage turned out to be 0.21.
As for A15U U54C U66C, the self-cleavage amounted to 0.12.
On to A15U U54C U78C, for which the self-cleavage came to 0.27.
With G16A U43C U48C C81U, the self-cleavage was found to be 0.17.
Next, G16A U67A U78C: 0.27; A15U U60C U78G: 0.14.
In the case of A15U U41A U80C, the self-cleavage is 0.19.
The same measure for A15U U41A U80A: 0.13; for A15U U54A U78C: 0.87.
With G16U C23A U41C A56G, the self-cleavage was 0.06.
The same measure for G16A U67A U72C: 0.48; for G16A U43C U60G: 0.19; for A15U U25C U31C U69A: 0.
In the case of G16A U26C U48C C79U, the self-cleavage was 0.23.
The same measure for A15U U26C U41C: 0.3; for G16C U26A U41A U54C U78A U80G: 0.05; for A15U U74A U80A: 1.17.
Next, G16U A47G U80C: 0.69; A15U U60C U67G U80A: 0.16; A15U U43C U49C U54C U66C U80C: 0.11.
For the variant G16C C17U A47G A64U A75G, the self-cleavage was found to be 0.14.
On to G16U A18G U67C U72C, for which the self-cleavage was 0.12.
Next, A15U U31A C32U A57G A64G: 0.06.
In the case of A15U U31A A57U A75G A77U, the self-cleavage was determined as 0.14.
Next, A15U U26C U41C U49C U60A C79U: 0.08; A15U U48C U54A C68A U80C: 0.13.
Next, G16A A35C U41C A65G: 0.11.
The same measure for A15U U31C A47G U67C: 0.14.
For the variant A15U U31C A64G U76A, the self-cleavage was 0.
The same measure for G16U A20G A47G U80C: 0.07; for G16U C40U A65G U74C: 0.15.
In the case of G16A A45U U76C, the self-cleavage turned out to be 0.51.
As for A15U U51A A57U, the self-cleavage came out at 0.19.
Take G16A U41C U80C: the self-cleavage turned out to be 0.79.
As for A15U U31C U67C, the self-cleavage amounted to 0.14.
As for G16A A47G U66A U80A, the self-cleavage stood at 0.09.
Take G16C C32U A35G A57G: the self-cleavage worked out at 0.13.
For G16A A57G A75U, the self-cleavage worked out at 0.6.
The same measure for A15U U54C A56G: 0.42; for A15U U49A U51A U54C U74C: 0.46.
For the variant A15U U43A U60A G70A, the self-cleavage was 0.23.
Take G16A A28G C40U U78C: the self-cleavage is 0.14.
As to G16A U41C U58C U78A, the self-cleavage worked out at 0.32.
Next, A15U U26A G30C U31C U69C: 0.07; A15U U31A A57C U60C: 0.12; G16A C40A A47C: 0.05.
Take A15U U31C U60A U80C: the self-cleavage stood at 0.21.
With A15U U26C A56G U78A, the self-cleavage amounted to 0.28.
Take A15U U58C U78C: the self-cleavage came to 0.33.
Next, G16C U49C U58C U74C: 0.18; G16A U26A U58C A75G: 0.1; G16U A28C U48C A57G U69A: 0.11.
With G16C U31C U78C, the self-cleavage turned out to be 0.22.
Next, G16U G22C G36A A64G U78C: 0.16; A15U U51C U58C A65G: 0.27.
Next, G16A U41C G52A U69G: 0.23; A15U U31C U43G A56G A57G: 0.13.
Next, A15U U54A A57G U67A: 0.18; G16U G24C U31C A56U A77G: 0.08; A15U U60C C71U: 0.15.
For the variant G16U A18G U43C, the self-cleavage turned out to be 0.18.
As to G16A C27U U54A A56U U78C, the self-cleavage was found to be 0.06.
The same measure for A15U U67C U72C: 0.32.
The same measure for A15U U41C A56G: 0.79; for G16A G24A U80A: 0.07; for A15U U41C U67C U78C: 0.15.
Turning to G16C U25C C62U U69C, the self-cleavage stood at 0.05.
Next, A15U U26A G36A U43C A45G U66A U67A: 0.34; A15U U58A U66C: 0.12.
As to G16A G30U A57G, the self-cleavage worked out at 0.27.
In the case of G16A G30A G52A G61C U80C C81U, the self-cleavage came to 0.07.
The same measure for G16A U31A U54A A56G U78A: 0.4; for G16A U26A C34U: 0.06; for A15U U26C C29U C62U U66C: 0.04.
The same measure for G16C U25A C40U U48C: 0.06; for A15U U26A U60A: 0.29; for A15U U31C G42A: 0.09.
Next, A15U U41C A45G G46C A64G: 0.22; G16C U25C U26A G42C A64G U66C: 0.04; A15U U26C U41A U72A U78A U80C: 0.28.
Turning to A15U U51A U60A, the self-cleavage came to 0.39.
The same measure for G16C G24C U78G: 0.05; for G16A A28G A35U U43C U48C U51A: 0.1; for G16C U54G A77G: 0.24.
As to A15U U66C G73U, the self-cleavage amounted to 0.19.
As for G16A G30A U74C, the self-cleavage is 0.05.
Consider A15U U41A A45G U48C U69A, for which the self-cleavage turned out to be 0.08.
Next, G16A C17U A64U A77G: 0.07; A15U U26A U43C U69C: 0.15; A15U U26A A64G: 0.26.
A15U U26A A28G U67C: the self-cleavage is 0.33.
With G16A G24U U26C A35G U60C, the self-cleavage was 0.12.
The same measure for A15U U25C U54G A64G: 0.18.
The same measure for G16C U41C G46U U51G U60C U76A U80C: 0.17; for G16C A20U A56G U78C: 0.13.
On to G16A A45C U66C U72A, for which the self-cleavage was determined as 0.07.
Next, A15U U31A G33U G46A U48C: 0.07; A15U U58C A65G: 0.18; G16A A18G U25A G33A: 0.04.
On to A15U U43C U72A, for which the self-cleavage worked out at 0.51.
The same measure for A15U U43C U72C: 0.73; for A15U U31A G46A U78G: 0.1; for A15U U43C U66C U78C: 0.05.
As for G16C A28G A45U U67C, the self-cleavage is 0.11.
For G16A A18G U72A, the self-cleavage was determined as 0.16.
As to G16A G52C G61A G73A, the self-cleavage was determined as 0.26.
For A15U U41A U67C C68U U72C U80C, the self-cleavage came out at 0.06.
The same measure for G16A A18G U31A U41C A45U A65G: 0.12.
As for A15U U26A U69A U72A, the self-cleavage turned out to be 0.1.
As for A15U U74A U76A, the self-cleavage came out at 0.91.
Next, A15U U60C A75U: 0.42; A15U U26A U72A G73A: 1.27; G16C G24C A47G: 0.2.
As to A15U U41C U43C A75G U78A, the self-cleavage was determined as 0.25.
Next, A15U U41C U67A U72C U74C: 0.25; A15U U66C U69C: 0.26.
The same measure for G16C C29U U58C G70A: 0.12; for G16C A28U A45G U51C U78C: 0.07; for A15U U51C U60C U67C U76A: 0.75.
On to G16C G24U U26C G52C A75U, for which the self-cleavage stood at 0.17.
As to A15U U26C C40U U54A, the self-cleavage is 0.08.
Regarding G16U C23U G46U G73C U78C, the self-cleavage came out at 0.19.
The same measure for A15U U26A A57U U72A G73A: 0.7.
Consider G16A U26C G33A U58G U72G U78C, for which the self-cleavage is 0.11.
A15U U41A A47G: the self-cleavage amounted to 0.26.
As for G16A U26C U41C U51A A57U U60G, the self-cleavage is 0.11.
As for A15U U26A A47G U72C, the self-cleavage is 0.47.
For A15U U31C C37U A65G U74C, the self-cleavage is 0.03.
Take G16A C17G U66C U76C U80A: the self-cleavage is 0.14.
The same measure for A15U U26A C34G U60A: 0.07; for G16A C17U C34U A47U U51A A64G U67C: 0.02.
Take G16A A21U A45G U49C: the self-cleavage was 0.18.
The same measure for G16A U25C A28G U31C C37G A47G U78C: 0.2; for G16C U41C U43C: 0.2; for A15U U54A A77U U80C: 1.19.
G16A U25A U43A: the self-cleavage was found to be 0.06.
Next, A15U U49C U67A: 0.1; G16C A18U C32A U43C: 0.2.
In the case of A15U U41C U54A, the self-cleavage amounted to 1.01.
Next, A15U U72A U74C: 1.24; G16A U31C U80A: 0.16; A15U U51C U67A: 0.33.
The same measure for A15U U26C A35U A65U U80C: 0.12.
Next, G16A U54C U60C: 0.18; G16C G24U U25C G52C: 0.14.
With G16A U78C U80C, the self-cleavage came out at 0.6.
A15U U41C U43C G70A: the self-cleavage turned out to be 0.4.
On to A15U U25C U31A A35U C39U U41A, for which the self-cleavage was determined as 0.05.
In the case of A15U U26C U72A, the self-cleavage was 0.14.
The same measure for G16A C59U U72G: 0.12; for A15U U48C A56G U67A U72C U78C: 0.03.
Turning to G16C A35G A47U U49A, the self-cleavage is 0.11.
The same measure for G16A A28G U78C: 0.26; for A15U U26A A64G U67G: 0.13; for G16A A18U A21C A45U U66C U80C: 0.05.
The same measure for G16A U74A U80C: 0.67.
Next, G16A U43A U49C U74G: 0.15.
With A15U U51A G63U U72C A75G U80C, the self-cleavage came to 0.86.
The same measure for G16U A28G U51C U76A: 0.09.
Next, A15U U26A C38A G42A: 0.2.
Next, A15U U26A A35G U58C: 0.27.
Consider G16C G19C U25C A35G, for which the self-cleavage came to 0.21.
The same measure for A15U U26G A65U U76A: 0.04.
